# Hit rate of the full screen: of about 310,000 compounds, about 18,000 (5.8%) were called active. This list was built around the results that the source calls inconclusive (neither active nor inactive); the mix of calls is not that of the screen. Calls come from the whole dose curve; as a rule, active = well fitted inhibition curve with a large enough effect; inconclusive = small, poorly fitted or top-dose-only effect, or another doubt; inactive = no such curve, though single readings can be large or run the other way. No potency is given beside an inconclusive call; the fits are too rough.
# Assay: Primary qHTS for delayed death inhibitors of the malarial parasite plastid, 48 hour incubation
# Conditions: P. falciparum luciferase growth in erythrocytes; series mostly up to 28.7 µM
# Procedure, shortened: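 Erythrocytes infected with P. falciparum carrying an integrated firefly luciferase reporter (2% hematocrit, 0.1% parasitemia final) were exposed to compounds in RPMI 1640 with 0.5% Albumax at 37 C, 5% CO2. Growth inhibition was scored as reduced luminescence.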
# Potency is the fitted concentration of half-maximal effect; tags give direction and shape of the fitted curve.
row,Compound,Potency
1,Cc1nc2ccc(NC(=O)c3ccc(Cl)c(S(=O)(=O)N(C)c4ccccc4)c3)cc2s1,inactive
2,COc1ccc(CN(C)C(=O)Cc2ccc(OC)c(S(=O)(=O)N3CCOCC3)c2)cc1,"inconclusive [inhibitor, single point]"
3,Cc1cc(C)c(NC(=O)CNC(=O)CN(C)Cc2ccc(Br)s2)c(C)c1,"inconclusive [inhibitor, single point]"
4,COc1ccccc1NC(=O)c1ccccc1Oc1ccccc1,"inconclusive [inhibitor, single point]"
5,CCN1C/C(=C/c2cccc([N+](=O)[O-])c2)C(=O)/C(=C/c2cccc([N+](=O)[O-])c2)C1,active: 1.65 µM
6,COc1ccc2c(Cl)c(C(=O)N/N=C3\CCCC(=O)C3)sc2c1,"inconclusive [inhibitor, single point]"
7,COc1ccc(NS(=O)(=O)c2cc(NC(=O)c3ccccc3F)ccc2N2CCCC2)cc1,"inconclusive [inhibitor, single point]"
8,CN(C)c1ccc(NC(=O)c2ccc(N3CCOCC3)nc2)cc1,"inconclusive [inhibitor, single point]"
9,COC(=O)c1ccccc1S(=O)(=O)N1CCC(NC(=O)c2ccccc2)CC1,"inconclusive [inhibitor, partial curve, poor fit]"
10,CNC(=O)c1ccc(NC(=O)c2cc(S(=O)(=O)N(C)C)ccc2N2CCCC2)cc1,"inconclusive [inhibitor, single point]"
11,CC(C)C[C@H](NC(=O)C1(c2ccccc2)CCN(C(=O)OC(C)(C)C)CC1)C(=O)N1CCC[C@H]1C(=O)O,"inconclusive [inhibitor, partial curve, poor fit]"
12,CCOc1ccccc1NC(=O)N1CCCN(c2ncccc2C#N)CC1,"inconclusive [inhibitor, partial curve, poor fit]"
13,Cn1c(NC(=O)/C=C/c2ccccc2)cc(=O)n(C)c1=O,inactive
14,O=C(Cc1cccc2ccccc12)N/N=C/c1ccc2cccc(O)c2n1,inactive
15,CCOc1ccccc1Nc1nnc(SCC(=O)Nc2cc(C)on2)s1,"inconclusive [inhibitor, single point]"
16,COc1ccc(/C=N\NC(=O)COc2ccc(C(C)(C)C)cc2)cc1Cn1nc(C)cc1C,"inconclusive [inhibitor, single point]"
17,CC(c1ccccc1)N(NC(=O)C(O)(c1ccccc1)c1ccccc1)C(=O)c1ccccc1 (configuration not stated),"inconclusive [inhibitor, single point]"
18,Cc1cc(=O)[nH]c(SCc2nc3ccccc3s2)n1,inactive
19,CCCCn1c(N)c(N(CC(C)C)C(=O)CSCC(=O)Nc2ccc(C)cc2)c(=O)[nH]c1=O,"inconclusive [inhibitor, single point]"
20,FC(F)(F)c1cc(-c2ccco2)nc(NCc2ccccc2)n1,"inconclusive [inhibitor, partial curve, poor fit]"
21,O=C(Cc1ccc(S(=O)(=O)N2CCOCC2)s1)N1CCN(c2ccc(C(F)(F)F)cc2[N+](=O)[O-])CC1,"inconclusive [inhibitor, partial curve]"
22,O=c1[nH]cnc2c1sc(=S)n2-c1ccccc1,inactive
23,O=C(Nc1ccccc1Cl)N1CCCN(c2nc(-c3ccccc3)ns2)CC1,"inconclusive [inhibitor, partial curve]"

row,Compound,Potency
1,COc1ccccc1NS(=O)(=O)c1cc2c(cc1C)NC(=O)CO2,"inconclusive [inhibitor, partial curve, poor fit]"
2,CCCC(=O)NC(=S)Nc1ccc(NC(=O)c2cccs2)cc1,"inconclusive [inhibitor, single point]"
3,COc1cc(-c2nc(C)c(C(C)=O)n2O)ccc1OCC(=O)Nc1ccc(F)cc1,"inconclusive [inhibitor, partial curve, poor fit]"
4,COc1ccc(NC(=O)c2cc(C)no2)cc1Cl,active: 4.15 µM
5,O=C1C2C3C=CC(CO)(O3)C2C(=O)N1c1ccccc1-c1ccccc1 (configuration not stated),"inconclusive [inhibitor, single point]"
6,Cc1[nH]c2ccccc2c1C(=O)C(C)OC(=O)c1ccc([N+](=O)[O-])o1 (configuration not stated),active: 3.29 µM
7,CCOC(=O)c1nc(NNC(=O)c2ccc([N+](=O)[O-])cc2)sc1C,"inconclusive [inhibitor, single point]"
8,Cc1cccc(C)c1NC(=S)NCCc1ccc(O)c(O)c1,active: 10.4 µM
9,COc1ccc(N2CCN(C(=O)CNC(=O)c3cccc(Br)c3)CC2)cc1,inactive
10,CC(=O)Nc1ccc(NC(=O)C2CCCN2C(=O)NC2CCCCC2)cc1 (configuration not stated),inactive
11,Cc1ccc(S(=O)(=O)c2cn(C)c3cc(N4CCN(C)CC4)c(F)cc3c2=O)c(C)c1,"inconclusive [inhibitor, partial curve]"
12,O=c1[nH]c(C2CCN(S(=O)(=O)c3ccc4c(c3)OCCO4)CC2)nc2c1nnn2Cc1cccc(F)c1,"inconclusive [inhibitor, single point]"
13,COc1ccc(C2c3cc(OC)c(OC)cc3CCN2S(C)(=O)=O)cc1OC (configuration not stated),"inconclusive [inhibitor, single point]"
14,CCS(=O)(=O)Nc1ccccc1C(N)=O,inactive
15,CCC(C)NC(=O)C1CCC(=O)N(c2cc(OC)c(OC)c(OC)c2)C1c1ccc(OC)cc1 (configuration not stated),"inconclusive [inhibitor, single point]"
16,Clc1ccccc1Cc1noc(CN2CCN(Cc3ccccn3)CC2)n1,inactive
17,CCOc1ccc(NS(=O)(=O)c2ccc(C(=O)NCC(c3cccs3)N3CCOCC3)cc2)cc1 (configuration not stated),inactive
18,Cc1ccc(CN2CCN(C/C=C/c3ccc(F)cc3)CC2CCO)o1 (configuration not stated),"inconclusive [inhibitor, single point]"
19,COCCN1C=C(C(=O)OC)C(c2ccc3c(c2)OCO3)C(C(=O)OC)=C1,"inconclusive [inhibitor, single point]"
20,O=C(Nc1ccccc1)c1ccc(NCCc2ccccc2)c([N+](=O)[O-])c1,"inconclusive [inhibitor, single point]"
21,CCCCn1c(=O)c(C(=O)NCCc2ccccc2)c(O)c2ccccc21,"inconclusive [inhibitor, single point]"
22,Cc1ccc(C(=O)Nc2cccc(S(=O)(=O)N3CCCCC3)c2)cc1[N+](=O)[O-],active: 4.65 µM
23,CC(C)C1CC(CCN)(c2ccccc2)CCO1 (configuration not stated),"inconclusive [inhibitor, single point]"

row,Compound,Potency
1,CCC(C)(C)c1ccc(OC(=O)c2cccnc2Cl)cc1,"inconclusive [inhibitor, single point]"
2,Cc1cc(C)n(CC(O)COc2ccccc2)n1 (configuration not stated),"inconclusive [inhibitor, full curve]"
3,CCCN(CC(=O)Nc1ccc(Cl)cc1Cl)Cc1cc(=O)n2ccsc2n1,"inconclusive [inhibitor, partial curve]"
4,COc1cc2ccccc2cc1C(=O)Nc1ccccc1C,inactive
5,CCOC(=O)c1c(C)n(C)c2cc(-c3cccc(C(F)(F)F)c3)c(O)cc12,"inconclusive [inhibitor, partial curve, poor fit]"
6,COc1ccc(C(=O)C2CN(c3ccccc3)CC2c2ccc(Cl)cc2)cc1 (configuration not stated),"inconclusive [inhibitor, partial curve]"
7,CCC(C)[C@H](NC(=O)NC(C)C)C(=O)O (some centres not stated),inactive
8,Cc1ccc(-c2csc3nc(=O)c(C)nn23)cc1,inactive
9,Cc1ccc(-n2c(Cc3cccn3C)nnc2SCC(=O)Nc2nnc(C)s2)cc1,"inconclusive [inhibitor, single point]"
10,CSc1nnc2n(C)c3c(c(=O)n12)C1(CCCC1)Cc1ccccc1-3,"inconclusive [inhibitor, partial curve, poor fit]"
11,N#Cc1ccc(C(c2nnnn2C2CCCC2)N2CCC(Cc3ccccc3)CC2)cc1 (configuration not stated),active: 4.65 µM
12,CCN(CC(=O)Nc1c(F)cccc1F)C(=O)c1ccccn1,inactive
13,CNC(=S)NNC(=O)c1cn(C)nc1C,"inconclusive [inhibitor, single point]"
14,COc1ccc(C2(O)CCN(CC(=O)Nc3nc(-c4ccccc4)cs3)CC2)cc1,"inconclusive [inhibitor, partial curve]"
15,CC1(C)C(=O)OC(C(=O)c2ccccc2)C2(CCCCC2)C1=O (configuration not stated),inactive
16,COc1cc(OC)c(NC(=O)CSc2nc3ccncc3[nH]2)cc1Cl,inactive
17,CN1CCN(S(=O)(=O)c2cccc(C(=O)Nc3cc(C(F)(F)F)ccc3N3CCCCC3)c2)CC1,"inconclusive [inhibitor, single point]"
18,COc1cccc(NC(=O)c2ccccc2OCc2c(C)noc2C)c1,"inconclusive [inhibitor, single point]"
19,O=C(C[n+]1cccc(NC(=O)c2ccccc2)c1)c1ccc(NC(=O)c2ccccc2)cc1,"inconclusive [inhibitor, single point]"
20,Cc1nn(-c2ccccc2)c(C)c1/C=N/NC(=O)c1cc(-c2cccc3ccccc23)n[nH]1,"inconclusive [inhibitor, single point]"
21,CCN1CCN(c2ccc(S(=O)(=O)N3CCOCC3)cc2NC(=O)c2ccc(F)cc2Cl)CC1,"inconclusive [inhibitor, partial curve, poor fit]"

# From PubChem BioAssay AID504832 (National Center for Advancing Translational Sciences (NCATS), 2011)
